By IC50 is meant the dose at which the fit gives 50% viability; where the fit passes the top or lowest dose, that dose stands as a limit. AUC is the area under the same curve over the 256-fold range up to the top dose, as a fraction; it is 1 without any effect and falls as sensitivity rises. Any top dose called inferred is not printed in the source and was worked back from the curve model. For some assays here: An entry number marks a drug with two screens in the source, which often give different values.
Columns and labels:
Assay in all cases: Viability of human cancer cell lines after 72 h of drug (GDSC screen)
BIRB 0796 = compound: Cc1ccc(-n2nc(C(C)(C)C)cc2NC(=O)Nc2ccc(OCCN3CCOCC3)c3ccccc23)cc1 [BIRB 0796]; settings: top dose 10 µM; top dose inferred
Description: (§1)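 Human cancer cell lines in 384-well plates, medium with 10% serum, drug for 72 h over a 256-fold dose range (nine 2-fold or five 4-fold steps up to the top dose). Adherent lines were fixed and stained with the nucleic acid dye Syto60, suspension lines read with resazurin; signal relative to control wells, capped at 0 and 100%. One two-parameter sigmoid per drug and line, fitted in a mixed model over all curves with the slope shared within a line.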

SB-525334 = compound: Cc1cccc(-c2[nH]c(C(C)(C)C)nc2-c2ccc3nccnc3c2)n1 [SB-525334]; settings: top dose 20 µM; top dose inferred
Description: as §1

Olaparib = compound: O=C(c1cc(Cc2n[nH]c(=O)c3ccccc23)ccc1F)N1CCN(C(=O)C2CC2)CC1 [Olaparib]
Description: as §1

Shikonin = compound: CC(C)=CC[C@@H](O)C1=CC(=O)c2c(O)ccc(O)c2C1=O [Shikonin]; settings: top dose 16 µM; top dose inferred
Description: as §1

HG-5-113-01 = compound: CNC(=O)c1ccc(Nc2cc(Nc3ccccc3S(=O)(=O)C(C)C)c3cc[nH]c3n2)nc1 [HG-5-113-01]; settings: top dose 10 µM; top dose inferred
Description: as §1

VX-702 = compound: NC(=O)c1ccc(N(C(N)=O)c2c(F)cccc2F)nc1-c1ccc(F)cc1F [VX-702]; settings: top dose 2 µM; top dose inferred
Description: as §1

BMS-536924 = compound: Cc1cc(N2CCOCC2)cc2[nH]c(-c3c(NC[C@@H](O)c4cccc(Cl)c4)cc[nH]c3=O)nc12 [BMS-536924]; settings: top dose 4 µM; screen: GDSC drug entry 1091; top dose inferred
Description: as §1

[1] = top dose 5 µM, screen: GDSC drug entry 1017, top dose inferred
[2] = top dose 10 µM, screen: GDSC drug entry 1495

Cell Line | AUC (BIRB 0796) | IC50 (BIRB 0796) [µM] | AUC (SB-525334) | IC50 (SB-525334) [µM] | AUC (Olaparib; [1]) | IC50 (Olaparib; [1]) [µM] | AUC (Olaparib; [2]) | IC50 (Olaparib; [2]) [µM] | AUC (Shikonin) | IC50 (Shikonin) [µM] | AUC (HG-5-113-01) | IC50 (HG-5-113-01) [µM] | AUC (VX-702) | IC50 (VX-702) [µM] | AUC (BMS-536924) | IC50 (BMS-536924) [µM]
H3118 (head and neck, adherent) | 0.964 | > 10 | 0.966 | > 20 | 0.962 | > 5 | 0.953 | > 10 | 0.426 | 0.614 | 0.72 | 2.81 | 0.958 | > 2 | 0.632 | 0.6
HARA (lung squamous cell carcinoma, adherent) | 0.969 | > 10 | 0.955 | > 20 | 0.937 | > 5 | 0.925 | > 10 | 0.627 | 2.37 | 0.756 | 3.95 | 0.978 | > 2 | 0.856 | > 4
HCC-15 (lung squamous cell carcinoma, adherent) | 0.981 | > 10 | 0.971 | > 20 | 0.929 | > 5 | 0.968 | > 10 | 0.571 | 1.65 | 0.767 | 4.75 | 0.943 | > 2 | 0.857 | > 4
Hs766T (pancreas, adherent) | 0.979 | > 10 | 0.971 | > 20 | 0.939 | > 5 | 0.976 | > 10 | 0.622 | 2.42 | 0.857 | > 10 | 0.959 | > 2 | 0.92 | > 4
Hs-578-T (breast, adherent) | 0.985 | > 10 | 0.981 | > 20 | 0.977 | > 5 | 0.968 | > 10 | 0.666 | 3 | 0.899 | > 10 | 0.987 | > 2 | 0.958 | > 4
JHU-022 (head and neck, adherent) | 0.927 | > 10 | 0.942 | > 20 | 0.945 | > 5 | 0.967 | > 10 | 0.652 | 2.97 | 0.777 | 5.15 | 0.976 | > 2 | 0.883 | > 4
JIMT-1 (breast, adherent) | 0.956 | > 10 | 0.982 | > 20 | 0.95 | > 5 | 0.931 | > 10 | 0.405 | 0.536 | 0.845 | 8.08 | 0.98 | > 2 | 0.949 | > 4
LC-1-sq (lung squamous cell carcinoma, adherent) | 0.948 | > 10 | 0.985 | > 20 | 0.939 | > 5 | 0.973 | > 10 | 0.556 | 1.47 | 0.786 | 5.11 | 0.913 | > 2 | 0.954 | > 4
MDA-MB-330 (breast, adherent) | 0.967 | > 10 | 0.98 | > 20 | 0.986 | > 5 | 0.984 | > 10 | 0.512 | 1.09 | 0.937 | > 10 | 0.976 | > 2 | 0.967 | > 4
MDA-MB-415 (breast, adherent) | 0.959 | > 10 | 0.983 | > 20 | 0.983 | > 5 | 0.962 | > 10 | 0.545 | 1.38 | 0.934 | > 10 | 0.983 | > 2 | 0.951 | > 4
MOG-G-UVW (glioma, adherent) | 0.972 | > 10 | 0.966 | > 20 | 0.873 | 4.57 | 0.819 | 5.51 | 0.465 | 0.807 | 0.684 | 2.01 | 0.958 | > 2 | 0.985 | > 4
NCI-H841 (small cell lung carcinoma, adherent) | 0.928 | > 10 | 0.938 | > 20 | 0.981 | > 5 | 0.972 | > 10 | 0.579 | 1.65 | 0.802 | 4.95 | 0.985 | > 2 | 0.961 | > 4
NCI-H1688 (small cell lung carcinoma, adherent) | 0.917 | > 10 | 0.806 | 11.4 | 0.987 | > 5 | 0.974 | > 10 | 0.759 | 6.12 | 0.899 | > 10 | 0.986 | > 2 | 0.899 | > 4
NCI-H2110 (non-small cell lung carcinoma, adherent) | 0.986 | > 10 | 0.986 | > 20 | 0.963 | > 5 | 0.963 | > 10 | 0.516 | 1.11 | 0.767 | 3.81 | 0.968 | > 2 | 0.706 | 0.965
OE21 (oesophagus, adherent) | 0.936 | > 10 | 0.955 | > 20 | 0.957 | > 5 | 0.937 | > 10 | 0.565 | 1.61 | 0.709 | 3.08 | 0.947 | > 2 | 0.789 | 2.55
OV-90 (ovary, adherent) | 0.93 | > 10 | 0.869 | > 20 | 0.975 | > 5 | 0.973 | > 10 | 0.486 | 0.909 | 0.769 | 4.85 | 0.971 | > 2 | 0.83 | 3.55
OVISE (ovary, adherent) | 0.953 | > 10 | 0.908 | > 20 | 0.925 | > 5 | 0.933 | > 10 | 0.563 | 1.57 | 0.819 | 8.26 | 0.871 | > 2 | 0.951 | > 4
